Laboratory results: the supplement of paper PMC3722116
Growth of fresh clinical P. falciparum isolates by hypoxanthine uptake over 42 h; for most isolates 1.6-1,647 nM mefloquine, 0.044-87 nM artesunate, 10-10,256 nM chloroquine, 2.4-236 nM lumefantrine. EC50, lower = more sensitive; slope from the same fit, higher = steeper. No active / inactive call. Fits with a coefficient of variation above 100% are not listed here; 15-28% of fits exceed 15%. Isolates are numbered anew.

How the values were obtained:
artesunate [1] = compound: T1, C[C@H]1[C@H](OC(=O)CCC(=O)O)O[C@@H]2O[C@@]3(C)CC[C@H]4[C@H](C)CC[C@@H]1[C@@]24OO3 [artesunate]; assay: slope of the dose-response curve (dimensionless); higher = steeper concentration-effect curve
Experimental: (§1)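 Hypoxanthine uptake by fresh isolates, duplicate serial dilutions, 24 h of drug plus 18 h after the label; sigmoid fit per isolate.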

mefloquine [2] = compound: T2, OC(c1cc(C(F)(F)F)nc2c(C(F)(F)F)cccc12)C1CCCCN1 [mefloquine]; assay: as above
Experimental: as §1

lumefantrine [3] = compound: T3, CCCCN(CCCC)CC(O)c1cc(Cl)cc2c1-c1ccc(Cl)cc1/C2=C/c1ccc(Cl)cc1 [lumefantrine]; assay: as above
Experimental: as §1

chloroquine [4] = compound: T4, CCN(CC)CCCC(C)Nc1ccnc2cc(Cl)ccc12 [chloroquine]; assay: as above
Experimental: as §1

artesunate [5] = compound: T1, artesunate
Experimental: as §1

mefloquine [6] = compound: T2, mefloquine
Experimental: as §1

lumefantrine [7] = compound: T3, lumefantrine
Experimental: as §1

chloroquine [8] = compound: T4, chloroquine
Experimental: as §1

Test System | slope (artesunate [1]) | slope (mefloquine [2]) | slope (lumefantrine [3]) | slope (chloroquine [4]) | EC50 of parasite growth (artesunate [5]) | EC50 of parasite growth (mefloquine [6]) | EC50 of parasite growth (lumefantrine [7]) | EC50 of parasite growth (chloroquine [8])
Plasmodium falciparum isolate 98 (pfmdr1 allele: 86N, 1042N, pfmdr1 copies: 1) | 5.97 | 1.89 | 2.21 | 4.61 | 0.000932 µg/mL | 0.00691 µg/mL | 0.0129 µg/mL | 0.0901 µg/mL
Plasmodium falciparum isolate 463 (pfmdr1 allele: 86N, 1042N, pfmdr1 copies: 1) | 6.39 | 3.53 | 2.49 | 5.67 | 0.000404 µg/mL | 0.0274 µg/mL | 0.0181 µg/mL | 0.124 µg/mL
Plasmodium falciparum isolate 465 (pfmdr1 allele: 1042D, pfmdr1 copies: 1) | 1.76 | 2.04 | 1.89 | 3.57 | 0.000321 µg/mL | 0.00255 µg/mL | 0.00181 µg/mL | 0.184 µg/mL
Plasmodium falciparum isolate 171 (pfmdr1 allele: 86N, 1042N, pfmdr1 copies: 1) | 9.99 | 2.62 | 2.28 | 4.67 | 0.000523 µg/mL | 0.0384 µg/mL | 0.0258 µg/mL | 0.367 µg/mL
Plasmodium falciparum isolate 374 (pfmdr1 allele: 1042D, pfmdr1 copies: 1) | 5.89 | 2.39 | 2.45 | 4.67 | 0.000233 µg/mL | 0.00953 µg/mL | 0.00278 µg/mL | 0.256 µg/mL
Plasmodium falciparum isolate 284 (pfmdr1 allele: 86N, 1042N, pfmdr1 copies: 1) | 3.92 | 1.62 | 4.32 | 2.04 | 0.000221 µg/mL | 0.00824 µg/mL | 0.0166 µg/mL | 0.0252 µg/mL
Plasmodium falciparum isolate 174 (pfmdr1 allele: 86N, 1042N, pfmdr1 copies: 1) | 5.48 | 2.29 | 2.11 | 6.83 | 0.000901 µg/mL | 0.0326 µg/mL | 0.0302 µg/mL | 0.261 µg/mL
Plasmodium falciparum isolate 110 (pfmdr1 allele: 86N, 1042N, pfmdr1 copies: 1) | 3.06 | 2.02 | 2.1 | 2.84 | 0.000345 µg/mL | 0.0108 µg/mL | 0.0107 µg/mL | 0.228 µg/mL
Plasmodium falciparum isolate 343 (pfmdr1 allele: 1042D, pfmdr1 copies: 1) | 9.98 | 2.41 | 2.3 | 6.45 | 0.00143 µg/mL | 0.018 µg/mL | 0.013 µg/mL | 0.0483 µg/mL
Plasmodium falciparum isolate 433 (pfmdr1 allele: 86N, 1042N, pfmdr1 copies: 1) | 7.58 | 2.2 | 1.74 | 3.82 | 0.000508 µg/mL | 0.0401 µg/mL | 0.012 µg/mL | 0.0962 µg/mL
Plasmodium falciparum isolate 120 (pfmdr1 allele: 86N, 1042N, pfmdr1 copies: 1) | 8.22 | 3.29 | 1.98 | 9.09 | 0.00175 µg/mL | 0.0365 µg/mL | 0.0122 µg/mL | 0.376 µg/mL
Plasmodium falciparum isolate 394 (pfmdr1 allele: 86N, 1042N, pfmdr1 copies: 1) | 6.69 | 3.45 | 2.87 | 6.83 | 0.00074 µg/mL | 0.0339 µg/mL | 0.0267 µg/mL | 0.0917 µg/mL
Plasmodium falciparum isolate 44 (pfmdr1 allele: 86N, 1042N, pfmdr1 copies: 1) | 10 | 1.18 | 0.975 | 5.73 | 0.00191 µg/mL | 0.0228 µg/mL | 0.0255 µg/mL | 0.11 µg/mL
Plasmodium falciparum isolate 216 (pfmdr1 allele: 86N, 1042N, pfmdr1 copies: 1) | 3.45 | 2.86 | 1.66 | 4.18 | 0.000384 µg/mL | 0.0208 µg/mL | 0.0106 µg/mL | 0.199 µg/mL
Plasmodium falciparum isolate 268 (pfmdr1 allele: 86Y, pfmdr1 copies: 1) | 3.19 | 2.07 | 2.04 | 5.93 | 0.000279 µg/mL | 0.00218 µg/mL | 0.00436 µg/mL | 0.115 µg/mL
Plasmodium falciparum isolate 89 (pfmdr1 allele: 86N, 1042N, pfmdr1 copies: 1) | 2.09 | 2.2 | 2.41 | 3.82 | 0.000424 µg/mL | 0.00612 µg/mL | 0.0118 µg/mL | 0.0913 µg/mL
Plasmodium falciparum isolate 88 (pfmdr1 allele: 1042D, pfmdr1 copies: 1) | 6.09 | 3.07 | 3.04 | 5.97 | 0.00031 µg/mL | 0.0149 µg/mL | 0.00714 µg/mL | 0.273 µg/mL
Plasmodium falciparum isolate 299 (pfmdr1 allele: 86N, 1042N, pfmdr1 copies: 1) | 5.84 | 2.17 | 2.04 | 3.21 | 0.000604 µg/mL | 0.0125 µg/mL | 0.018 µg/mL | 0.111 µg/mL
Plasmodium falciparum isolate 90 (pfmdr1 allele: 86N, 1042N, pfmdr1 copies: 2) | 9.66 | 2.51 | 1.91 | 2.74 | 0.00105 µg/mL | 0.0499 µg/mL | 0.0613 µg/mL | 0.0452 µg/mL
Plasmodium falciparum isolate 250 (pfmdr1 allele: 86N, 1042N, pfmdr1 copies: 1) | 3.96 | 2.52 | 2.2 | 4.89 | 0.000499 µg/mL | 0.0128 µg/mL | 0.00699 µg/mL | 0.113 µg/mL
Plasmodium falciparum isolate 412 (pfmdr1 allele: 86N, 1042N, pfmdr1 copies: 2) | 5.73 | 3.49 | 2.44 | 3.42 | 0.000838 µg/mL | 0.0915 µg/mL | 0.0588 µg/mL | 0.104 µg/mL

Test System | slope (artesunate [1]) | slope (mefloquine [2]) | slope (lumefantrine [3]) | slope (chloroquine [4]) | EC50 of parasite growth (artesunate [5]) | EC50 of parasite growth (mefloquine [6]) | EC50 of parasite growth (lumefantrine [7]) | EC50 of parasite growth (chloroquine [8])
Plasmodium falciparum isolate 18 (pfmdr1 allele: 86N, 1042N, pfmdr1 copies: 1) | 4.34 | 2.28 | 2.27 | 3.48 | 0.000293 µg/mL | 0.0141 µg/mL | 0.0305 µg/mL | 0.151 µg/mL
Plasmodium falciparum isolate 119 (pfmdr1 allele: 86N, 1042N, pfmdr1 copies: 1) | 4.56 | 2.46 | 1.72 | 3.83 | 0.000718 µg/mL | 0.0378 µg/mL | 0.0176 µg/mL | 0.182 µg/mL
Plasmodium falciparum isolate 400 (pfmdr1 allele: 86N, 1042N, pfmdr1 copies: 1) | 3.13 | 1.56 | 1.51 | 2.32 | 0.00017 µg/mL | 0.00449 µg/mL | 0.0103 µg/mL | 0.0566 µg/mL
Plasmodium falciparum isolate 255 (pfmdr1 allele: 86N, 1042N, pfmdr1 copies: 2) | 10 | 3.5 | 3.38 | 3.08 | 0.000965 µg/mL | 0.119 µg/mL | 0.0819 µg/mL | 0.135 µg/mL
Plasmodium falciparum isolate 324 (pfmdr1 allele: 86N, 1042N, pfmdr1 copies: 1) | 4.26 | 3.62 | 2.07 | 5.48 | 0.00135 µg/mL | 0.0396 µg/mL | 0.0149 µg/mL | 0.0713 µg/mL
Plasmodium falciparum isolate 27 (pfmdr1 allele: 86N, 1042N, pfmdr1 copies: 2) | 3.78 | 4.92 | 3.92 | 0.872 | 0.00103 µg/mL | 0.0723 µg/mL | 0.0652 µg/mL | 0.29 µg/mL
Plasmodium falciparum isolate 427 (pfmdr1 allele: 86N, 1042N, pfmdr1 copies: 1) | 5.74 | 3.09 | 2.44 | 3.17 | 0.00118 µg/mL | 0.0367 µg/mL | 0.0188 µg/mL | 0.0937 µg/mL
Plasmodium falciparum isolate 43 (pfmdr1 allele: 86N, 1042N, pfmdr1 copies: 1) | 5.95 | 1.73 | 1.28 | 4.04 | 0.00033 µg/mL | 0.00665 µg/mL | 0.0133 µg/mL | 0.173 µg/mL
Plasmodium falciparum isolate 14 (pfmdr1 allele: 86N, 1042N, pfmdr1 copies: 3) | 5.97 | 4.29 | 2.09 | 2.39 | 0.00108 µg/mL | 0.0574 µg/mL | 0.0363 µg/mL | 0.057 µg/mL
Plasmodium falciparum isolate 13 (pfmdr1 allele: 86N, 1042N, pfmdr1 copies: 1) | 5.82 | 5.13 | 2.75 | 3.88 | 0.000552 µg/mL | 0.0144 µg/mL | 0.00649 µg/mL | 0.0696 µg/mL
Plasmodium falciparum isolate 141 (pfmdr1 allele: 86N, 1042N, pfmdr1 copies: 1) | 6.6 | 2.61 | 1.93 | 5.41 | 0.000717 µg/mL | 0.0309 µg/mL | 0.0284 µg/mL | 0.114 µg/mL
Plasmodium falciparum isolate 181 (pfmdr1 allele: 86N, 1042N, pfmdr1 copies: 1) | 4.64 | 2.8 | 3.01 | 6.18 | 0.000958 µg/mL | 0.0248 µg/mL | 0.0236 µg/mL | 0.0935 µg/mL
Plasmodium falciparum isolate 133 (pfmdr1 allele: 86N, 1042N, pfmdr1 copies: 1) | 6.07 | 4.52 | 2.87 | 4.59 | 0.00117 µg/mL | 0.0428 µg/mL | 0.0568 µg/mL | 0.145 µg/mL
Plasmodium falciparum isolate 100 (pfmdr1 allele: 86N, 1042N, pfmdr1 copies: 1) | 7.54 | 2.98 | 1.89 | 3.03 | 0.00109 µg/mL | 0.0357 µg/mL | 0.0187 µg/mL | 0.179 µg/mL
Plasmodium falciparum isolate 220 (pfmdr1 allele: 86N, 1042N, pfmdr1 copies: 1) | 4.25 | 2.46 | 2.01 | 4.66 | 0.000795 µg/mL | 0.0144 µg/mL | 0.0131 µg/mL | 0.0777 µg/mL
Plasmodium falciparum isolate 240 (pfmdr1 allele: 86N, 1042N, pfmdr1 copies: 1) | 7.97 | 6.6 | 3.89 | 2.43 | 0.00272 µg/mL | 0.128 µg/mL | 0.112 µg/mL | 0.115 µg/mL
Plasmodium falciparum isolate 333 (pfmdr1 allele: 86N, 1042N, pfmdr1 copies: 1) | 9.99 | 2.06 | 2.21 | 5.38 | 0.00205 µg/mL | 0.0197 µg/mL | 0.00879 µg/mL | 0.218 µg/mL
Plasmodium falciparum isolate 360 (pfmdr1 allele: 86N, 1042N, pfmdr1 copies: 1) | 2.1 | 1.18 | 0.988 | 2.34 | 0.000169 µg/mL | 0.00553 µg/mL | 0.0132 µg/mL | 0.0893 µg/mL
Plasmodium falciparum isolate 162 (pfmdr1 allele: 86N, 1042N, pfmdr1 copies: 1) | 4.23 | 2.53 | 2.5 | 4.28 | 0.000397 µg/mL | 0.0245 µg/mL | 0.0193 µg/mL | 0.0781 µg/mL
Plasmodium falciparum isolate 87 (pfmdr1 allele: 86N, 1042N, pfmdr1 copies: 2) | 5.73 | 4.11 | 2.04 | 4.28 | 0.000373 µg/mL | 0.0623 µg/mL | 0.0295 µg/mL | 0.0862 µg/mL
